Assay results as given in PubChem BioAssay AID1030 (National Center for Advancing Translational Sciences (NCATS), 2008).
In all, about 220,000 compounds went through this assay and about 16,000 (7.3%) were called active. The inconclusive results got no clear call from the source; some entries with a clear call stand among them for comparison. Calls follow the shape of the dose curve; as a rule, active = well fitted inhibition curve with a large enough effect (not every such curve was filed as active); inconclusive = small, poorly fitted or top-dose-only effect, or another doubt; inactive = no such curve, though single readings can be large or run the other way. No potency is given beside an inconclusive call; the fits are too rough.
Potency is read from the fitted curve at half-maximal effect; tags tell the direction and shape of the fitted curve.

The compounds below were run against Aldehyde dehydrogenase 1A1 (Homo sapiens) (UniProt P00352) (assay: qHTS Assay for Inhibitors of Aldehyde Dehydrogenase 1 (ALDH1A1)). Conditions: Purified ALDH1A1, NADH fluorescence, propionaldehyde substrate; series mostly up to 75.3 µM.
UniProt P00352, sequence (P00352 whole entry, looked up): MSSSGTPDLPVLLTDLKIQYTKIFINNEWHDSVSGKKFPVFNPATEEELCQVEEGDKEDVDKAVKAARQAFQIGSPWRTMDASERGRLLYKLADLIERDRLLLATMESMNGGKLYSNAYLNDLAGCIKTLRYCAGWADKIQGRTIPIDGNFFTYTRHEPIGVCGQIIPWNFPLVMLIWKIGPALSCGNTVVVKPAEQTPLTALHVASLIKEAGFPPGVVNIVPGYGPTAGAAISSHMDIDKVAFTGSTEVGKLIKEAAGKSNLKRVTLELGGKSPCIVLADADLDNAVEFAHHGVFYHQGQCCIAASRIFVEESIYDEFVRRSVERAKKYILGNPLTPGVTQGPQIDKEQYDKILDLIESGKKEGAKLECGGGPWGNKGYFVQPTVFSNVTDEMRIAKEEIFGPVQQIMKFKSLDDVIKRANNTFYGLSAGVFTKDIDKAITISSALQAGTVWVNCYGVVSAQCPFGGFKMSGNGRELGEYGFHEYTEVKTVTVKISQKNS
O=C(NC(=S)Nc1ccc(S(=O)(=O)Nc2nccs2)cc1)c1ccc(Br)o1 was tested, and the Potency was active: 31.6 µM. COc1cc(C)c(CNc2cccc(C)c2)cc1C was tested, and the Potency was active: 14.1 µM. In the case of Cc1cc(C)c(C#N)c(N2CCN(Cc3ccc4c(c3)OCO4)CC2)n1, the Potency was inconclusive [inhibitor, partial curve]. With C=CCn1c(SCc2csc(-c3ccc(Cl)cc3)n2)nnc1-c1ccccc1OC the Potency was “inactive”. In the case of O=C(NCCc1ccccc1Cl)C1CCN(S(=O)(=O)c2cccs2)CC1, the Potency was inconclusive [inhibitor, partial curve]. In the case of CCOC(=O)CSc1nc2c(sc3ccc([N+](=O)[O-])cc32)c(=O)n1Cc1ccco1, the Potency was inconclusive [inhibitor, partial curve]. For Cc1cc2cc(CNC(=O)c3ccc(S(=O)(=O)N(C)C)cc3)ccc2n1C, the Potency was “inactive”. For Cc1cc(S(N)(=O)=O)c(N)c(S(N)(=O)=O)c1, the Potency was inconclusive [inhibitor, single point]. With CCC/C=C(\CCC)C(NC(=O)c1ccccc1)c1ccccc1 (configuration not stated) the Potency was inconclusive [inhibitor, single point]. In the case of N#CNC(=Nc1cccc(F)c1)SCc1cccc(F)c1, the Potency was “inactive”. CSc1nnc2n(-c3ccccc3)c(=O)c3c4c(sc3n12)CCC4 was tested, and the Potency was “inactive”. For C=CCNC(=O)NC(=O)COC(=O)CC(NC(N)=O)c1ccc(Cl)cc1 (configuration not stated), the Potency was “inactive”. COc1cc(CC(=O)NCCc2ccc(S(N)(=O)=O)cc2)cc(OC)c1OC was tested, and the Potency was “inactive”. In the case of CCOCC(=O)Nc1nc2ccc(OCC)cc2s1, the Potency was active: 15.8 µM. For Cc1[nH]n(-c2ccccc2)c(=O)c1-c1ccc(Cl)cc1, the Potency was “inactive”. For CCOC(=O)N1CCN(c2cccc(C)c2C)CC1, the Potency was inconclusive [inhibitor, single point]. For O=c1c2c([nH]c3ccccc13)C(=C1CCCC1)CC2, the Potency was inconclusive [inhibitor, single point]. For CC(=O)Nc1cc(C(=O)N2CCN(C)CC2)ccc1Sc1ccc(C)cc1, the Potency was inconclusive [inhibitor, single point]. In the case of O=C(Nc1ncc(Cc2cccc(C(F)(F)F)c2)s1)c1ccc(-c2cccc([N+](=O)[O-])c2)o1, the Potency was “inactive”. Cc1cc(C)c(C#N)c(Sc2nnnn2-c2ccccc2)n1 was tested, and the Potency was inconclusive [inhibitor, single point]. In the case of Cc1cc(C)cc(N(CC(=O)Nc2ccc(-c3nc4ccc(C)cc4s3)cc2)S(C)(=O)=O)c1, the Potency was inconclusive [inhibitor, partial curve]. For COc1ccc(-c2nc3ccccc3c(=O)o2)cc1OC, the Potency was inconclusive [inhibitor, single point]. For Cc1ccc2c(Cl)cc(Cl)c(OCC(=O)NC(C)(C)C)c2n1, the Potency was inconclusive [inhibitor, single point]. CCCC1NC(=S)NC(C)=C1C(C)=O (configuration not stated) was tested, and the Potency was “inactive”. With COc1ccc(N2CC(C(=O)Nc3nnc(SCc4ccccn4)s3)CC2=O)cc1 (configuration not stated) the Potency was inconclusive [inhibitor, partial curve]. In the case of Cc1ccc(C)c(/C=C/C(=O)c2ccccc(=O)c2O)c1, the Potency was “inactive”. For O=C(O)/C=C/c1cn(-c2ccccc2)nc1-c1cccs1, the Potency was inconclusive [inhibitor, partial curve]. For CC[C@H](C)[C@H](NC(=O)OCc1ccccc1)C(=O)Nc1ccc(NC(C)=O)cc1, the Potency was “inactive”. For Cc1cccc(C)c1NC(=S)NCCSc1ccc(Cl)cc1, the Potency was “inactive”. For CC1(C)CC(=O)C(N=Nc2ccc(Cl)cc2)=C(O)C1, the Potency was inconclusive [inhibitor, full curve]. COC(=O)COc1ccccc1C(N)=O was tested, and the Potency was “inactive”. With Cc1ccc(S(=O)(=O)Nc2cc(S(=O)(=O)N3CCCCC3)ccc2N2CCOCC2)cc1 the Potency was active: 12.6 µM. COc1cccc(S(=O)(=O)Nc2cccc(C(=O)N3CCCCCC3)c2)c1 was tested, and the Potency was active: 14.1 µM. O=C1CSC(=S)N1/N=C/c1ccc(Cl)c([N+](=O)[O-])c1 was tested, and the Potency was active: 31.6 µM. Cc1ccc(NC2OC(C(O)CO)C(O)C2O)cc1[N+](=O)[O-] (configuration not stated) was tested, and the Potency was “inactive”. In the case of O=C(NNC(=O)c1cccc2ccccc12)c1ccc2c(c1)OCO2, the Potency was “inactive”. With COc1ccc(C(=O)CCN2CCc3cc(OC)c(OC)cc3C2)cc1 the Potency was active: 0.224 µM. In the case of CCCCSc1nnc([C@H](CC(C)C)NC(=O)OC(C)(C)C)o1, the Potency was “inactive”. For COc1ccc(OCCN2C(=O)c3ccccc3C2=O)cc1, the Potency was “inactive”. CCC(c1nnnn1Cc1ccco1)N(CCc1ccccc1)Cc1cc2ccc(OC)cc2[nH]c1=O (configuration not stated) was tested, and the Potency was active: 10 µM. CCN(CC)C(=O)c1cc(Cl)ccn1 was tested, and the Potency was active: 31.6 µM. In the case of CC(C)Cn1c(CCC(=O)O)ccc1-c1cccs1, the Potency was inconclusive [inhibitor, partial curve]. For COc1ccc(-c2nc(-c3ccccn3)nc(N3CCN(C)CC3)c2C#N)cc1, the Potency was active: 14.1 µM. In the case of COC(=O)c1ccc(N=Cc2c(-c3ccccc3)[nH][nH]c2=O)cc1, the Potency was inconclusive [inhibitor, single point]. In the case of CO/N=C/c1cccn1-c1nccc(OC)c1C#N, the Potency was “inactive”. For Cc1ccc(C)c(Cn2c(CN(C)Cc3ccccc3)nc3c2c(=O)n(C)c(=O)n3C)c1, the Potency was inconclusive [inhibitor, partial curve]. In the case of O=C(Nc1ccccc1)N1CCCC2(CCN(C(=O)c3csnn3)CC2)C1, the Potency was “inactive”. With CC(C)n1c(=S)[nH]c2ccccc21 the Potency was inconclusive [inhibitor, single point]. For C[C@@]12C[C@H](O)C3[C@H](CCC4=CC(=O)CC[C@]43C)[C@H]1CC[C@@H]2c1csc(N)n1 (some centres not stated), the Potency was active: 2 µM. For CC(C)C(=O)N=C1SC2CS(=O)(=O)CC2N1Cc1ccccc1 (configuration not stated), the Potency was “inactive”. Nc1cc(N2CCCC2)c(Cl)cc1[N+](=O)[O-] was tested, and the Potency was inconclusive [inhibitor, single point]. With CCOC(=O)CSC1=C(C#N)C(c2ccccc2)C(C(C)=O)=C(C)N1 (configuration not stated) the Potency was active: 31.6 µM. With O=C(NCc1ccco1)c1cc(-c2ccccn2)nc2ccccc12 the Potency was “inactive”. In the case of CCN(CC)C(=O)c1cc2c(=O)oc3ccccc3c2s1, the Potency was inconclusive [inhibitor, full curve]. In the case of CCOc1ccc(C2=C(C=Nc3c(C)n(C)n(-c4ccccc4)c3=O)C(c3ccc(F)cc3)c3ccccc3O2)cc1 (configuration not stated), the Potency was “inactive”. With Cc1cc(C)n(-c2nc(NCCC(C)C)c3c4c(sc3n2)COC(C)(C)C4)n1 the Potency was inconclusive [inhibitor, single point]. Cc1cc(C)n(Cc2ccc(C(=O)O)o2)n1 was tested, and the Potency was “inactive”. With O=C(O)Cn1cnc2scc(-c3cccs3)c2c1=O the Potency was “inactive”. With Cc1ccc(-n2c(C)cc(/C=N/NC(=O)c3ccncc3)c2C)cc1C the Potency was inconclusive [inhibitor, single point]. With CCOC(=O)C1(Cc2ccc(OC)cc2)CCN(C(=O)c2ccoc2C)CC1 the Potency was inconclusive [inhibitor, single point]. For CC(C)c1ccc(C(=O)CSc2ncn[nH]2)cc1, the Potency was inconclusive [inhibitor, single point]. With CC(C)CC(=O)NC(=S)Nc1cccc2nsnc12 the Potency was inconclusive [inhibitor, single point]. C=CCN(CC=C)C(=S)NC(=O)c1ccc(OC)cc1 was tested, and the Potency was active: 15 µM. Cn1nnnc1SCC(=O)Nc1c(Cl)cccc1Cl was tested, and the Potency was “inactive”. In the case of Cc1ccccc1Cn1cnc2c(cnn2C(C)(C)C)c1=O, the Potency was “inactive”. With COc1ccc(C(O)C(CN2CCOCC2)c2ccccc2)cc1 (configuration not stated) the Potency was “inactive”. CCCC[C@@H]1C[C@H]1C(NS(=O)(=O)c1cccc2cccnc12)c1ccc(-c2ccccc2)cc1 (some centres not stated) was tested, and the Potency was “inactive”. With CS(=O)(=O)c1sc2nc(-c3ccccc3)cc(-c3ccccc3)c2c1N the Potency was inconclusive [inhibitor, single point]. With COc1ccccc1-c1nnc2n1N=C(C(C)(C)C)CS2 the Potency was “inactive”. For CCCc1nnc(NC(=O)CC(=O)OCC)s1, the Potency was inconclusive [inhibitor, single point]. CNc1nnc(-c2ccncc2)s1 was tested, and the Potency was inconclusive [inhibitor, partial curve]. For Cc1cc(C(=O)Nc2nc3ccc(S(C)(=O)=O)cc3s2)c(C)o1, the Potency was inconclusive [inhibitor, single point]. With CCc1cccc(CC)c1NC(=S)Nc1ccccc1 the Potency was “inactive”. With COCC(=O)N1CCC2(CCCN(c3ccccn3)C2)CC1 the Potency was inconclusive [inhibitor, single point]. For COc1ccccc1OCCCN1C(=O)C(=O)c2cccc(C)c21, the Potency was “inactive”. With COc1ccc(C2Nc3ccccc3C(=O)N2C2CCCCC2)cc1 (configuration not stated) the Potency was inconclusive [inhibitor, single point]. With Nc1ccc(S(=O)(=O)Nc2cnc3ccccc3n2)cc1 the Potency was “inactive”. In the case of Nc1c(C(=O)Nc2ccc(Br)cc2)sc2nc(-c3ccco3)ccc12, the Potency was inconclusive [inhibitor, full curve]. With CC(C)C(c1nnnn1Cc1ccco1)N1CCC(C(N)=O)CC1 (configuration not stated) the Potency was “inactive”. For COc1ccc(-n2c(COc3ccccc3)nnc2SCc2ccc(C#N)cc2)cc1, the Potency was inconclusive [inhibitor, single point]. With CCOC(=O)CNC(=O)c1sc(NC(=O)c2ccccc2)nc1C the Potency was inconclusive [inhibitor, single point]. For C=CCn1c(=NC(=O)C2COc3ccccc3O2)sc2cc(S(N)(=O)=O)ccc21 (configuration not stated), the Potency was inconclusive [inhibitor, partial curve].
